# Some of the results follow.
# Target: T1, OsWOX13 (Oryza sativa, UniProt Q5QMM3 1-267)
# T1 sequence: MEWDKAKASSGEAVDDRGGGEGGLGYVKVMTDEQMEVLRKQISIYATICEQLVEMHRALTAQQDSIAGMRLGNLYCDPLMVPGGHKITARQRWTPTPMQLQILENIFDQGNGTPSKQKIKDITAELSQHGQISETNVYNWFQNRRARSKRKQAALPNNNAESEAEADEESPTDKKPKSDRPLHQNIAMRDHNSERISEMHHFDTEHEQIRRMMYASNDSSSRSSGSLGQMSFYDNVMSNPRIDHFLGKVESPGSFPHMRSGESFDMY
# Assay: protein-binding microarray (RPBM); PBS, 2% BSA, 51.3 ng/ul salmon testes DNA, 50 uM zinc acetate, 200 nM TF, 25 C, 1 h; high values mean tight binding
# Details: protein: recombinant; tags: N-terminal polyhistidine and DsRed monomer fusion (pET32a); label: CyDye5-dUTP incorporated in the synthesized complementary strand; 3' TTTTT single-stranded linker to array surface; dsDNA, one strand shown
# How it was run: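 A custom Agilent array was converted to double-stranded form by primer extension with Cy5-dUTP and blocked with 2% BSA. Protein at 200 nM in PBS with 2% BSA, salmon testes DNA and 50 µM zinc acetate was applied for 1 h at 25 °C, followed by washing. The proteins were polyhistidine–DsRed N-terminal fusions of transcription factors, expressed in E. coli BL21-CodonPlus and Ni–NTA-purified. The binding signal is per-feature fluorescence intensity (arbitrary units) from an Axon 4000B scanner.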
row,Sequence,binding signal
1,GATTGCAATTGATGATTATGTCCGTTATCAATTCCTACTCCGGAGTCACCTAGTGCAG,15000 fluorescence intensity (a.u.)
2,CAAACTAGAATAATATAAATGATTGATTTTGAGCATATCCCGGAGTCACCTAGTGCAG,16400 fluorescence intensity (a.u.)
3,TTTATGTGATTGTCATTTATTTTACTGTGACTTGATTCATCGGAGTCACCTAGTGCAG,29000 fluorescence intensity (a.u.)
4,ATTGAAATTATGTCGGCCTGTCAGAGGCTCTTTCATCGCTCGGAGTCACCTAGTGCAG,3780 fluorescence intensity (a.u.)
5,TACAATCACATTCAATTTGAAAAGAGAAGATGGCTCTTGGCGGAGTCACCTAGTGCAG,9800 fluorescence intensity (a.u.)
6,ACAAAATCACTGTAAAATCATTTCTAAAATCACTTTATATCGGAGTCACCTAGTGCAG,3250 fluorescence intensity (a.u.)
7,TAATTAATTAACAAAGAACTATATAATCGAAGACCAAATCCGGAGTCACCTAGTGCAG,8580 fluorescence intensity (a.u.)
8,GTATAATCAGTTTGTAACAGAACTATCACAACTCACACGGCGGAGTCACCTAGTGCAG,12500 fluorescence intensity (a.u.)
9,GGTCTATAATTAGCAATAACAACATGCTCCAAAGTGTAGTCGGAGTCACCTAGTGCAG,16400 fluorescence intensity (a.u.)
10,GGTGGACGAGATTGGAGCGGCAAAGAAGGGGTGAAGAGGTCGGAGTCACCTAGTGCAG,3460 fluorescence intensity (a.u.)
11,AGTCATTTTCCCCTTAATTTGTTGGAGTATGCTATCCAAGCGGAGTCACCTAGTGCAG,10100 fluorescence intensity (a.u.)
12,ATAATTGAAACGATATAAGGAAATACTCGTATATGAAGTACGGAGTCACCTAGTGCAG,19500 fluorescence intensity (a.u.)
13,TTTAGACATAATTAAAATTTCGGATTAAAAGAATAAGGAACGGAGTCACCTAGTGCAG,24200 fluorescence intensity (a.u.)
14,AAACGATACATGATTTAGGCCGTGATGAATCTTGGCATGCCGGAGTCACCTAGTGCAG,4590 fluorescence intensity (a.u.)
15,GTCTCTAATCTACGTTAATCAGCAGAAATCAAACTTGACACGGAGTCACCTAGTGCAG,15400 fluorescence intensity (a.u.)
16,AACTAAATTTGGGAGATCGAGAAAGATTCGGCCAGATTTGCGGAGTCACCTAGTGCAG,4390 fluorescence intensity (a.u.)
17,GTTAATTGTCATCGATTTCCCGATTCTTTTGTCAAATTTACGGAGTCACCTAGTGCAG,15700 fluorescence intensity (a.u.)
18,ATTAACTGGTACCTCATCGATTGAACATATATATGCATTACGGAGTCACCTAGTGCAG,17700 fluorescence intensity (a.u.)
19,GCTTATTGGCTTATATGATTTATAAGCCAGTGGATTTAATCGGAGTCACCTAGTGCAG,7500 fluorescence intensity (a.u.)
20,CATCTGATGGAGATGTGTTCCATAACAAAGTTGTAGAGCTCGGAGTCACCTAGTGCAG,4270 fluorescence intensity (a.u.)
21,GCCTAATTACGCCATGATTTGATAATGTGGTGCTACAGTACGGAGTCACCTAGTGCAG,41800 fluorescence intensity (a.u.)

row,Sequence,binding signal
1,TCTGACCTGAAAGTCTCAATCAGACAGCTTTCGAAAAGGACGGAGTCACCTAGTGCAG,4260 fluorescence intensity (a.u.)
2,AATAACGTTATAATTATAGTGGCACGAGTTCAAATAGGTGCGGAGTCACCTAGTGCAG,5240 fluorescence intensity (a.u.)
3,AATAACTTTTAAATATAATAAAACTGAAATGTGAATGAAGCGGAGTCACCTAGTGCAG,4750 fluorescence intensity (a.u.)
4,TCAAAATTTTATAAAATAGATGTAATATTTATATGATGAACGGAGTCACCTAGTGCAG,5790 fluorescence intensity (a.u.)
5,ATCAAATAAAGCCGTTAATTTCAGAAAATTTTCGTGGGCTCGGAGTCACCTAGTGCAG,4190 fluorescence intensity (a.u.)
6,TTGGAATAAGGCAGTGATTGGTGGCGCACACTGCACACACCGGAGTCACCTAGTGCAG,13200 fluorescence intensity (a.u.)
7,AGTACAATCAATCTGACGAAATTGCTCATTTTGGTCGCTACGGAGTCACCTAGTGCAG,17200 fluorescence intensity (a.u.)
8,ACTTTGATCAAAACTCCTTATAATTTGAAAGGTGGGAGTACGGAGTCACCTAGTGCAG,6720 fluorescence intensity (a.u.)
9,ATTTTGATTAATCTCGTATTGGGTTCTTATATGGAAACTTCGGAGTCACCTAGTGCAG,33500 fluorescence intensity (a.u.)
10,TGTAAATTGGAAATTGTAAAACTTACAGATGATAAACAAGCGGAGTCACCTAGTGCAG,23300 fluorescence intensity (a.u.)
11,CTTTCTTCTTTTGTCCCTTTTGATTTGATCACCGTATTCACGGAGTCACCTAGTGCAG,3170 fluorescence intensity (a.u.)
12,GCTGACGATTTGATTAACCCAACCCGCTCCGACACGTGCCCGGAGTCACCTAGTGCAG,29600 fluorescence intensity (a.u.)
13,GCTAAATTGTAAAACTTGTGCTCGATGATGGTAAACCGGACGGAGTCACCTAGTGCAG,10800 fluorescence intensity (a.u.)
14,CAAGATCAATTGACAATTCAGATATAAATTAAGATAGTACCGGAGTCACCTAGTGCAG,7340 fluorescence intensity (a.u.)
15,AATCTGTATCACAAATTTCTAATTAAACCGACGAATCAATCGGAGTCACCTAGTGCAG,3690 fluorescence intensity (a.u.)
16,CTTAATTGATCTTATCCATGGAAACAGAAGAATGGCTATGCGGAGTCACCTAGTGCAG,36200 fluorescence intensity (a.u.)
17,ATAACTAATGGAATGAAATGTAAAAGTCGAAACTCTAGCTCGGAGTCACCTAGTGCAG,8840 fluorescence intensity (a.u.)
18,ATCTTGTGTTAATTTGCATGAGGAGAGCTTACCTTCCATGCGGAGTCACCTAGTGCAG,3780 fluorescence intensity (a.u.)
19,ATCAGCGAAAATTAGAATTTTCAACCTTAAATTTGGAGTCCGGAGTCACCTAGTGCAG,3880 fluorescence intensity (a.u.)
20,AGACAAATAAACAAATTGCAAAACTGGGCGTTTTGTGTTACGGAGTCACCTAGTGCAG,4570 fluorescence intensity (a.u.)
21,TAAATTGGCTATTACATTAGTTATAAATGATTTGGAGCTACGGAGTCACCTAGTGCAG,34400 fluorescence intensity (a.u.)

row,Sequence,binding signal
1,AATTCATTTACAGTCAATCTAATAGTTAATTCATACAATACGGAGTCACCTAGTGCAG,15900 fluorescence intensity (a.u.)
2,GTAATTAATTAACAACTCACCGTCCTTATATAATTGTTTTCGGAGTCACCTAGTGCAG,35500 fluorescence intensity (a.u.)
3,ACTTAAACTTGATCACTAAACAAACGTGTCAGATTACACGCGGAGTCACCTAGTGCAG,4040 fluorescence intensity (a.u.)
4,GAATATTAAACTTCCAAAACAGGTCCAAAGCTATGTTCTTCGGAGTCACCTAGTGCAG,57500 fluorescence intensity (a.u.)
5,AAGTAATTAATCTAACAAATGCCTCAATTAACATTGGTTACGGAGTCACCTAGTGCAG,33500 fluorescence intensity (a.u.)
6,TTAAATCTAAATTGTTCTCACATGTATGCCATATGTAGTACGGAGTCACCTAGTGCAG,4880 fluorescence intensity (a.u.)
7,TCTGCTAATTTATCAGATAATCACTATTAGTTTTATTCCGCGGAGTCACCTAGTGCAG,27400 fluorescence intensity (a.u.)
8,ATTTATTGAGAATAAATTGCTCTATTACAACTTGCAAACTCGGAGTCACCTAGTGCAG,12300 fluorescence intensity (a.u.)
9,ATACATGATTACACGAATTGAAGGATATGCGTGCTCACTGCGGAGTCACCTAGTGCAG,24800 fluorescence intensity (a.u.)
10,GTACAGTTTAGAACAATCAATAACGATGCGATATGTACCACGGAGTCACCTAGTGCAG,3220 fluorescence intensity (a.u.)
11,AACTAAGTTAAATGCACCAATTAATTATAGACCATGTCACCGGAGTCACCTAGTGCAG,6140 fluorescence intensity (a.u.)
12,GAGATTGGTATGGTCCCTCAATAAAATGGTGCCATCAAGCCGGAGTCACCTAGTGCAG,3650 fluorescence intensity (a.u.)
13,CTCCAGTCATTAACTAGTTGTAAATGGAATAGTATTAGTACGGAGTCACCTAGTGCAG,8900 fluorescence intensity (a.u.)
14,AAGATGTGTCAATTAATTATTTGCCACTCGTTATCTATGACGGAGTCACCTAGTGCAG,13400 fluorescence intensity (a.u.)
15,TGTAACGCTATCACAAAATAAATTAGATATGTGAAGCTGGCGGAGTCACCTAGTGCAG,8750 fluorescence intensity (a.u.)
16,ATGTAATTTCTATTCATAGAAAAGCATGGGTACTCAGCTACGGAGTCACCTAGTGCAG,9070 fluorescence intensity (a.u.)
17,ATCTAGACGTATAAATTTGTGTGGAATTTTGTACAACTCACGGAGTCACCTAGTGCAG,3350 fluorescence intensity (a.u.)
18,TCAATAAATGTAAATTTATTTGTATAATCAGCTGCCAGTACGGAGTCACCTAGTGCAG,16800 fluorescence intensity (a.u.)
19,GAAATACTTACAATGATAGATTTCACTATCCCTATCACTGCGGAGTCACCTAGTGCAG,3750 fluorescence intensity (a.u.)
20,TTCTATTATTGATTTTGGCCGACCGAACAAAGATAGTTTCCGGAGTCACCTAGTGCAG,9880 fluorescence intensity (a.u.)
21,ACTTAATTATCCTAGAGGTGGAAAAGAAAAGACTTTTGAGCGGAGTCACCTAGTGCAG,24500 fluorescence intensity (a.u.)

row,Sequence,binding signal
1,GGCTGGTTTGATTGACCATGTGCCGTTCATAGGAGTAGTCCGGAGTCACCTAGTGCAG,33400 fluorescence intensity (a.u.)
2,ACAGTTGACTGCACCGTGTCATTGTCACTAACATGTGGACCGGAGTCACCTAGTGCAG,8180 fluorescence intensity (a.u.)
3,GGAGTAAATACAAATTTAATTTACAACTTTTCTCAATTTACGGAGTCACCTAGTGCAG,6430 fluorescence intensity (a.u.)
4,ATAGTAATTATAATGACACAAAGGTCAATTAATCAATTAACGGAGTCACCTAGTGCAG,17100 fluorescence intensity (a.u.)
5,CTGAATTGATCGACAAGTCCACAGGGTAAGTACTTCTGTTCGGAGTCACCTAGTGCAG,20000 fluorescence intensity (a.u.)
6,AGTGAGTAATTAATGCCCTGAAGTTCCTTCTTATTTCTAACGGAGTCACCTAGTGCAG,3500 fluorescence intensity (a.u.)
7,TATTAATATATTAATTAATCAAAACCCTTTCCTTCTTTCACGGAGTCACCTAGTGCAG,13600 fluorescence intensity (a.u.)
8,CGCTTGTACTGATTTGGTTTTGGTTGCTGGGTTGGATGGTCGGAGTCACCTAGTGCAG,5960 fluorescence intensity (a.u.)
9,ACTAAATTGACTTATTAGGTGTTGTCACAGTTTACTTGACCGGAGTCACCTAGTGCAG,46000 fluorescence intensity (a.u.)
10,CACTGGGATTGGTTGGTCTGGTCAGCAAGCAGAGCACCGCCGGAGTCACCTAGTGCAG,9500 fluorescence intensity (a.u.)
11,CCCCTACAGCAGGCAATTAAGATTGAATTGCATACATTAACGGAGTCACCTAGTGCAG,3610 fluorescence intensity (a.u.)
12,CAAATTTAATTAGTAGTAGAAGATATATTGTCTTCTAGCTCGGAGTCACCTAGTGCAG,35000 fluorescence intensity (a.u.)
13,AAGTAATTATTAATTCTTTTCGTATCATTTGGTTCATTGTCGGAGTCACCTAGTGCAG,29800 fluorescence intensity (a.u.)
14,TGTAATGATTTTCACTGAGCTGAAGGATATTAATTTGCATCGGAGTCACCTAGTGCAG,18200 fluorescence intensity (a.u.)
15,TACTAAATGTACAATTTGCAGGTCAATGAACGCTGCACATCGGAGTCACCTAGTGCAG,3610 fluorescence intensity (a.u.)
16,AACTCAATCATGCGATTAGTTAATTATTGGCAAATATATACGGAGTCACCTAGTGCAG,17500 fluorescence intensity (a.u.)
17,ATGATTTTGATTTTGTGCTCTGCTCTGCCTTTTGCTCCTACGGAGTCACCTAGTGCAG,16400 fluorescence intensity (a.u.)
18,CAAATCATGGCGCAATTAGGCTTAAAAGATTCGTCTCACACGGAGTCACCTAGTGCAG,4730 fluorescence intensity (a.u.)
19,GAATAATTGCTCTTGTGCTAAGAAAATATATTTTATCCTTCGGAGTCACCTAGTGCAG,11300 fluorescence intensity (a.u.)
20,TCCGTATAATTCCGATTAATTGTCCATATTCTAATTAATTCGGAGTCACCTAGTGCAG,15700 fluorescence intensity (a.u.)
21,TGCTGAGAAATTAATTGAAACATTATGACAGTTATAGTTACGGAGTCACCTAGTGCAG,13700 fluorescence intensity (a.u.)
